Laboratory results from a collection of fitness landscapes (doi:10.1016/j.celrep.2020.107928).
Over roughly 81,000 sequences, “one-hybrid fitness for binding NBS DNA” has its median near -0.1; the highest 2% begin near 0.36. This is one part of the list.

B1: Caulobacter ParB omega fusion; a variant is named by its letters at X, in order, B8GW30 (parent)
chain: MESVVVGEPGMSEGRRGLGRGLSALLGEVDAAPAQAPGEQLGGSREAPIEILQRNPDQPRRTFREEDLEDLSNSIREKGVLQPILVRPSPDTAGEYQIVAGERAWRAAQRAGLKTVPIMVRELDDLAVLEIGIIENVQRADLNVLEEALSYKVLMEKFERTQENIAQTIGKSXSHVANXMRLLXLPDEVQSYLVSGELTAXHARAIAAAADPVALAKQIIEGGLSVRETEALARKAPNLSAGKSKGGRPPRVKDTDTQALESDLSSVLGLDVSIDHRGSTGTLTITYATLEQLDDLCNRLTRGI

Variants of: B1
Assay: one-hybrid fitness for binding NBS DNA (the Noc-binding site; scaled: cognate 1, non-cognate 0); higher = stronger binding
Conditions: with NBS DNA site
How it was run: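 Fitness here means the log change in variant-to-wild-type read ratio between plasmids sequenced before and after selection. That scale was set so cognate equals 1 and non-cognate equals 0. The selection was a bacterial one-hybrid screen of Caulobacter ParB libraries, four specificity codons randomised, in E. coli USO carrying a HIS3 reporter with the site 19 bp from the promoter, grown 48 hours at 37°C on M9-minus-histidine with 0.1 mM IPTG and 5 mM 3-AT.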

one-hybrid fitness for binding NBS DNA, 0.337:
RRIY

one-hybrid fitness for binding NBS DNA, 0.606:
RRLS

one-hybrid fitness for binding NBS DNA, 0.453:
QRLH

one-hybrid fitness for binding NBS DNA, ≤ 0.2:
LISK
VNRV
TYMC
NGPC
PALC
IEST
YHEG
NQCS
AGMR
KLPI
WRWS
MASV
QEME
LAPK
GTAC
HYMS
YKDV
STTV
TINM
SRAG
AKPL
KINL
LESF
YSIL
DEMT
PYDC
SGHW
SYRK
VTSL
VHYT
TVAA
GCHN
GECA
NECT
PIYM
MQIF
MSYH
ELKV
QSFF
LKSD
WRTL
PTTC
QSSK
HEAN
TVNY
MNDT
RVPS
VHLL
DMKE
GVCA
NAEP
MIHG
NHST
SSNC
TFWT
DEHG
LAGT
SVGP
PLDI
PFHN
ATGL
QNKH
HLCM
RQHN
IWQR
RVSE
ASGG
WPTF
IRPG
GPVR
NCQG
PWCF
TMML
LTYA
ADTR
SPVE
NWNA
VEAH
KNVC
SPGW
RHNF
TVGR
HPNK
IKSS
KPWG
HRIL
LFPL
AGFT
YGKR
FLGR
LRVI
PYRA
LMAA
GETW
PRQL
KIIG
FAPL
ANMG
LVRL
GRHS
FQAL
TQQM
VNYL
WHPD
EEDR
YRVR
RGLD
TSQL
SNEF
CNVC
CTIF
LLSG
AIAV
CEMR
NEFY
KANV
MFRY
TFYV
RVKL
AWQR
FVQV
NHCR
GHLY
AQKW
QYSW
RIIW
RHDN
PLSK
MPVC
RCTI
LAQK
VPPY
WVQL
DGPL
PLLY
CRYL
NRQL
KMRV
VAAI
NVRA
TSYR
RDGK
TEQY
MEAY
TTMQ
RAWF
WMRR
DPNT
INNL
WDKG
NFKT
CVPF
VSLI
LQWY
TLGV
IPHS
TTKC
FTQS
IAMC
NTFC
RTWP
RMHG
DIRS
YAGC
KYPC
SLLT
GVMC
ADRG
EECG
SPYV
QERI
QTED
RVGE
RWKL
CQRS
FRPT
QSCN
QKLM
ETLL
RWSR
HNTG
WDSS
DVHV
WDTG
CTFF
SVPD
DSQT
CEYR
RNMA
DLYF
KHTS
PPYV
LWPI
VNFG
WVKR
HNML
PRKP
HKNR
PVFL
FNHS
EHAS
RIGV
FRPF
LICE
NCQS
TNEW
GMNG
YMLC
GCMT
TTCV
RACC
NTWS
SAEF
GGLR
AMTY
KEEV
RFPT
KMKK
TCFD
FNAC
ARDS
DHPV
LNSG
CQWG
SEHC
TKHF
PSPH
CYYR
AFAK
HWVL
NPSG
LAAM
PGNH
CGPS
ERSV
DHDS
WQRM
QLSF
VLYR
SYYG
FIPE
AKLV
RDQK
KSFM
SEGF
LGYG
QNYN
QAPG
PFRG
HYYY
HKHH
WEQI
TRWL
SDVE
DVCR
RHMD
TWTD
HLNK
MHHP
RCHP
PLRS
LKMG
TVPT
VWEC
HGTM
THIC
DNVM
GRPD
NVAY
YRKV
PVRV
RMHI
FPMS
RWHT
EAFF
RHHP
WSSM
AWIP
YMNC
CWSS
LVYV
DSMR
ISHC
SAET
RFMF
RLEF
VVLT
VNKH
GANR
YFDV
AYNP
HGFD
YFDT
DRTY
ELQS

one-hybrid fitness for binding NBS DNA, 0.403:
QRHG

one-hybrid fitness for binding NBS DNA, 0.439:
RVSR

one-hybrid fitness for binding NBS DNA, 0.236:
HNMR

one-hybrid fitness for binding NBS DNA, 0.726:
RYRR

one-hybrid fitness for binding NBS DNA, 0.303:
RSLS

one-hybrid fitness for binding NBS DNA, 0.222:
QQMH

one-hybrid fitness for binding NBS DNA, 0.262:
QMKL

one-hybrid fitness for binding NBS DNA, 0.226:
RMDT
